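Compound exposure: 48 hours, 5 concentrations, 96-well plates. GI50 is the concentration that inhibits growth by half.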 Activity calls are given as the source filed them. No stated cut-off is given here; in the data, active = GI50 up to about 1.1 µM and inactive = higher.
Test system: NCI-H322M
Assay: DTP human tumour cell line panel, 48 h

| Structure (SMILES) | GI50 |
| --- | --- |
| COc1ccc2c(C(=O)c3c(C)n(CCN4CCOCC4)c4ccccc34)cccc2c1 | inactive: > 100 µM |
| Cc1nc2c(sc3nc4ccccc4n32)c(=O)[nH]1 | inactive: > 100 µM |
| COC(=O)C(CCC1C=CN(S(=O)(=O)c2ccc(C)cc2)C1)/N=C/c1ccccc1 (stereo not given) | inactive: 90.8 µM |
| O=C1c2ccccc2-c2nc(-c3cccc([N+](=O)[O-])c3)nnc21 | inactive: 4.71 µM |
| Cc1ccc(C)c(C2NC(=O)c3ccccc3N2)c1 (stereo not given) | inactive: 5.41 µM |
| COc1cc2c(cc1OC)C1C=NC(C(=O)O)(C2)c2ccccc21 (stereo not given) | inactive: > 100 µM |
| N#CC(c1ccccc1)N(CCc1ccccc1)C(=O)c1ccccc1 (stereo not given) | inactive: > 100 µM |
| O=c1nc2occc2cn1C1CC(O)C(CO)O1 (stereo not given) | inactive: > 100 µM |
| CC(C)(C)C1CCC(O)(c2ccccc2)CC1 (stereo not given) | inactive: > 100 µM |
| CC(C)C1CC[C@@H](C)C[C@@]1(O)CC(N)=O (stereo not given in full) | inactive: > 100 µM |
| CCOC(=O)C1=C(C)N(C)C(=S)NC1c1cccc(O)c1 (stereo not given) | inactive: 27.9 µM |
| CCOC(=O)C(NC(=O)c1nc[nH]c1[N+](=O)[O-])C(C)C (stereo not given) | inactive: > 100 µM |
| O=C1CSC(c2ccccc2)N1c1ccc(-c2ccc(-n3c(-c4ccccc4)nc4ccccc4c3=O)cc2)cc1 (stereo not given) | inactive: > 100 µM |
| COc1ccc2c(c1)CCc1cc(C(N)=O)c3nnnn3c1-2 | inactive: > 100 µM |
| Oc1cccc(-c2nc3ccccc3s2)c1 | inactive: 48.9 µM |
| CC(C)Cn1cnc2c(NCC(C)O)nc3ccccc3c21 (stereo not given) | inactive: > 100 µM |
| CC(/C=N\NC(=S)N(C)C)=N/NC(=S)N(C)C | active: 0.507 µM |
| COc1cc(OCCN(C)C)c2[nH]c(C(=O)N3CC(CCl)c4ccc(N)cc43)cc2c1 (stereo not given) | active: 0.0822 µM |
| COc1cccc2c1C1(O)C2CCCCCCCCCC12OCCCO2 (stereo not given) | inactive: > 45.8 µM |
| C=C(C)CCC1CCCCC(CN(C)C)C1=O (stereo not given) | inactive: > 100 µM |
| N/C(=N\Nc1cccc(Cl)c1)c1cccnc1 | inactive: 70.3 µM |
| O=C(NC1CCCCC1)NC12CC3CC(CC(F)(C3)C1)C2 | inactive: > 100 µM |
| CC(=O)/N=C1\N/C(=C\c2ccc(Cl)cc2)C(=O)N1/C=C1\C(=O)Oc2ccccc2C1=O | inactive: > 100 µM |

| Structure (SMILES) | GI50 |
| --- | --- |
| [N-]=[N+]=NC1C(O)C(CO)OC1n1ccc(=O)[nH]c1=O (stereo not given) | inactive: > 875 µM |
| CCc1cccc(C)c1NC(C)=O | inactive: > 100 µM |
| COc1ccc(C2C3=C(COC3=O)Oc3cc4c(cc32)OCO4)cc1OC (stereo not given) | inactive: 2.69 µM |
| CCN1C(=O)N2C(OC)c3ccccc3C(Br)C2(OC)C1=O (stereo not given) | inactive: > 100 µM |
| CSc1nc(NC2OC(COC(C)=O)C(OC(C)=O)C(OC(C)=O)C2OC(C)=O)c(-c2csc(N)n2)c(=O)n1C (stereo not given) | inactive: 54 µM |
| O=[N+]([O-])c1ncc(N(CCO)CCO)s1 | inactive: > 100 µM |
| COc1ccc(Oc2cccc(/C=C3/C(=O)Nc4ccccc43)c2)cc1 | inactive: 16.9 µM |
| C[C@]12CC[C@@H]3c4cc(Br)c(O)c(Br)c4CC[C@H]3[C@@H]1CCC2=O | inactive: 19.2 µM |
| C[C@@H]1CCC2[C@@H](C)C(=O)O[C@@H]3C4C[C@@H]1[C@@]23OO[C@@]4(C)O (stereo not given in full) | inactive: > 100 µM |
| Cc1ccccc1N1C(N)=C(C#N)C(C#N)(C#N)C1c1ccccc1 (stereo not given) | inactive: 19.5 µM |
| CC(=O)O[C@H]1CC[C@@]2(C)C(=C[C@H](c3ccc(O)cc3)[C@H]3[C@@H]4CC[C@H](OC(C)=O)[C@@]4(C)CC[C@@H]32)C1 | inactive: 17.3 µM |
| Nc1ccc(-c2nc3cc(F)ccc3s2)cc1CO | inactive: 17.7 µM |
| Cc1ccc(-n2c(C)nc3c2C(=O)c2ccccc2C3=O)cc1 | inactive: 27.5 µM |
| N#C/C(C(=O)CCl)=C1\Nc2ccccc2O1 | inactive: 12.4 µM |
| O=c1c2cc([N+](=O)[O-])ccc2n2n1Cc1ccccc1C2 | inactive: > 100 µM |
| Cc1nnc2sc(-c3ccc([N+](=O)[O-])o3)nn12 | inactive: 26.2 µM |
| CC1(c2ccc(Cl)s2)CC(c2ccc(Cl)s2)=C(C#N)C(=C(C#N)C#N)N1 (stereo not given) | inactive: 15.9 µM |
| c1ccc2c(c1)[nH]c1c2nc2ccccn21 | inactive: > 100 µM |
| CCOC(=O)C1=C(C)N(NC(N)=O)C2(N)N(NC(N)=O)C(C)=C(C(=O)OCC)C12C(=O)OCC (stereo not given) | inactive: > 100 µM |
| NC(=O)NC12CC3CC(CC(F)(C3)C1)C2 | inactive: > 100 µM |
| CCOc1ccc(/C(C=O)=C(\Cl)c2ccc(OC)c(OC)c2)cc1 | inactive: > 100 µM |
| CCCCCc1cccc(=O)o1 | inactive: > 100 µM |
